Assay results from the supplement of paper PMC4967469.

Assays:
Experiment in all cases: Viability of human cancer cell lines after 72 h of drug (GDSC screen)
[1] = compound: CC(C)C[C@@H](C=O)NC(=O)[C@H](CC(C)C)NC(=O)[C@H](CC(C)C)NC(=O)OCc1ccccc1 [MG-132]; conditions: top dose 1 µM
Description: (§1)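 Human cancer cell lines in 384-well plates, medium with 10% serum, drug for 72 h over a 256-fold dose range (nine 2-fold or five 4-fold steps up to the top dose). Adherent lines were fixed and stained with the nucleic acid dye Syto60, suspension lines read with resazurin; signal relative to control wells, capped at 0 and 100%. One two-parameter sigmoid per drug and line, fitted in a mixed model over all curves with the slope shared within a line.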

[2] = compound: CC(C)[C@H](C(=O)Nc1ccc(C(=O)NO)cc1)c1ccccc1 [AR-42]; conditions: top dose 5.12 µM; top dose inferred
Description: as §1

[3] = compound: CS(=O)(=O)N1CCN(Cc2cc3nc(-c4cccc5[nH]ncc45)nc(N4CCOCC4)c3s2)CC1 [GDC0941]; conditions: top dose 4 µM; screen: GDSC drug entry 1527; top dose inferred
Description: as §1

[4] = compound: Cc1ccc(Nc2nccc(N(C)c3ccc4c(C)n(C)nc4c3)n2)cc1S(N)(=O)=O [Pazopanib]; conditions: top dose 8 µM
Description: as §1

[5] = compound: C[C@]12O[C@H](C[C@]1(O)CO)n1c3ccccc3c3c4c(c5c6ccccc6n2c5c31)CNC4=O [CEP-701]; conditions: top dose 2 µM; top dose inferred
Description: as §1

[6] = compound: Cn1cc(C2=C(c3ccc(Cl)cc3Cl)C(=O)NC2=O)c2ccccc21 [SB 216763]; conditions: top dose 10 µM; top dose inferred
Description: as §1

Cell Line | AUC [1] | IC50 [1] [nM] | AUC [2] | IC50 [2] [nM] | AUC [3] | IC50 [3] [nM] | AUC [4] | IC50 [4] [nM] | AUC [5] | IC50 [5] [nM] | AUC [6] | IC50 [6] [nM]
LOXIMVI (melanoma, semi-adherent) | 0.86 | 697 | 0.631 | 702 | 0.79 | 1580 | 0.943 | > 8000 |  |  |  | 
MDST8 (large intestine, adherent) | 0.921 | > 1000 |  |  | 0.855 | 3160 | 0.988 | > 8000 | 0.51 | 133 | 0.984 | > 10000
MFM-223 (breast, adherent) | 0.952 | > 1000 | 0.595 | 582 |  |  | 0.934 | > 8000 | 0.733 | 573 | 0.979 | > 10000
MOLM-13 (acute myeloid leukaemia, suspension) | 0.767 | 349 | 0.267 | 73 |  |  | 0.723 | 2040 | 0.089 | < 7.81 | 0.981 | > 10000
MSTO-211H (mesothelioma, adherent) | 0.948 | > 1000 | 0.621 | 664 |  |  | 0.971 | > 8000 | 0.684 | 387 | 0.991 | > 10000
MV-4-11 (leukaemia, suspension) | 0.826 | 466 |  |  |  |  |  |  |  |  | 0.815 | 4290
MY-M12 (leukaemia, suspension) | 0.727 | 305 | 0.252 | 55.9 |  |  | 0.635 | 1240 | 0.563 | 190 | 0.981 | > 10000
NB7 (neuroblastoma, adherent) | 0.974 | > 1000 | 0.189 | 35.8 | 0.767 | 1550 | 0.764 | 3030 |  |  |  | 
NB14 (neuroblastoma, adherent) | 0.987 | > 1000 |  |  | 0.914 | > 4000 | 0.989 | > 8000 | 0.268 | 28.6 | 0.911 | > 10000
NB17 (neuroblastoma, adherent) | 0.705 | 260 | 0.835 | 4080 |  |  |  |  | 0.695 | 483 | 0.965 | > 10000
NB69 (neuroblastoma, adherent) | 0.801 | 423 | 0.444 | 229 |  |  | 0.985 | > 8000 | 0.7 | 424 | 0.922 | > 10000
NCI-H23 (lung adenocarcinoma, adherent) | 0.876 | 971 | 0.622 | 691 |  |  | 0.976 | > 8000 | 0.885 | > 2000 | 0.974 | > 10000
NCI-H69 (small cell lung carcinoma, suspension) | 0.629 | 148 |  |  | 0.665 | 761 | 0.917 | > 8000 | 0.801 | 1100 | 0.986 | > 10000
NCI-H510A (small cell lung carcinoma, semi-adherent) | 0.858 | 715 | 0.262 | 71.8 |  |  | 0.924 | > 8000 | 0.811 | 959 | 0.974 | > 10000
NCI-H1355 (lung adenocarcinoma, adherent) | 0.736 | 407 | 0.914 | > 5120 | 0.628 | 658 | 0.868 | > 8000 |  |  |  | 
NCI-H1975 (lung adenocarcinoma, adherent) | 0.64 | 161 | 0.561 | 480 |  |  | 0.913 | > 8000 | 0.709 | 534 |  | 
OMC-1 (cervix, adherent) | 0.954 | > 1000 | 0.645 | 822 | 0.795 | 1950 | 0.985 | > 8000 | 0.805 | 1060 |  | 
OS-RC-2 (kidney, adherent) | 0.738 | 415 | 0.668 | 1170 | 0.722 | 1440 |  |  | 0.647 | 384 | 0.935 | > 10000
RKO (large intestine, adherent) | 0.757 | 322 | 0.565 | 475 |  |  |  |  | 0.636 | 287 | 0.984 | > 10000
RPMI-8226 (myeloma, suspension) | 0.988 | > 1000 | 0.407 | 185 |  |  |  |  |  |  | 0.99 | > 10000
RS4-11 (leukaemia, suspension) | 0.984 | > 1000 | 0.235 | 59.3 | 0.846 | 2550 | 0.872 | 6520 |  |  |  | 
RXF393 (kidney, adherent) | 0.716 | 328 | 0.555 | 479 | 0.793 | 2670 | 0.854 | > 8000 | 0.747 | 866 |  | 
SU-DHL-8 (B-cell lymphoma, suspension) | 0.72 | 250 | 0.192 | 42.2 | 0.939 | > 4000 | 0.651 | 1270 |  |  |  | 
SW872 (soft tissue, adherent) | 0.728 | 258 | 0.56 | 459 | 0.654 | 637 | 0.982 | > 8000 |  |  |  | 
TALL-1 (T-cell lymphoblastic leukaemia, suspension) | 0.989 | > 1000 | 0.521 | 365 |  |  | 0.989 | > 8000 |  |  |  | 
TC-YIK (cervix, suspension) | 0.973 | > 1000 |  |  | 0.752 | 1170 |  |  | 0.632 | 274 | 0.991 | > 10000
THP-1 (acute myeloid leukaemia, suspension) | 0.991 | > 1000 |  |  | 0.916 | > 4000 |  |  | 0.756 | 623 | 0.991 | > 10000
UACC-812 (breast, adherent) | 0.937 | > 1000 | 0.665 | 902 |  |  | 0.987 | > 8000 |  |  |  | 

The IC50 comes from the fitted curve, where viability falls to half of the control; where the fit passes the top or lowest dose, that dose stands as a limit. AUC, from the same fit, is the share of area under the viability curve across the 256-fold dose range; values near 1 show little effect. For part of these data: Where the top dose is marked as inferred, it was derived from the fitted curves, not read from the paper. For part of these data: Drugs with an entry number were screened twice under separate entries, and the two screens often disagree.
